{"source": "paper PMC3960075", "about": "(ACS chemical biology, 2012)", "molecular_target": "bovine serum albumin (BSA) (Bos taurus, UniProt P02769)", "assay": "Direct binding FP specificity control with BSA", "conditions": "BSA 2-fold serial dilutions from 100 μM, 4 at 60 nM"}
{"compound": "O=C(O)/C(O)=C/C(=O)C1(Cc2ccc(Cl)cc2)CCN(C(=O)c2ccc(-c3c4ccc(=O)cc-4oc4cc(O)ccc34)c(C(=O)O)c2)CC1", "note": "[Compound 4]", "values": [{"measurement": "Non-specific binding to BSA", "value": "not observed"}]}
